# Data from article PMC4336329 (PLoS ONE, 2015).
# About 2,200 (0.71%) of roughly 310,000 compounds showed an effect of 50% or more. Effects have a minus sign here. The list shows a part of the results.
# Biological target: human ether-à-go-go-related gene (hERG) potassium channel (human, UniProt Q12809)
# Test: primary screen, population patch clamp on CHO cells stably expressing hERG
# Chain of human ether-à-go-go-related gene (hERG) potassium channel (Q12809 whole entry, looked up): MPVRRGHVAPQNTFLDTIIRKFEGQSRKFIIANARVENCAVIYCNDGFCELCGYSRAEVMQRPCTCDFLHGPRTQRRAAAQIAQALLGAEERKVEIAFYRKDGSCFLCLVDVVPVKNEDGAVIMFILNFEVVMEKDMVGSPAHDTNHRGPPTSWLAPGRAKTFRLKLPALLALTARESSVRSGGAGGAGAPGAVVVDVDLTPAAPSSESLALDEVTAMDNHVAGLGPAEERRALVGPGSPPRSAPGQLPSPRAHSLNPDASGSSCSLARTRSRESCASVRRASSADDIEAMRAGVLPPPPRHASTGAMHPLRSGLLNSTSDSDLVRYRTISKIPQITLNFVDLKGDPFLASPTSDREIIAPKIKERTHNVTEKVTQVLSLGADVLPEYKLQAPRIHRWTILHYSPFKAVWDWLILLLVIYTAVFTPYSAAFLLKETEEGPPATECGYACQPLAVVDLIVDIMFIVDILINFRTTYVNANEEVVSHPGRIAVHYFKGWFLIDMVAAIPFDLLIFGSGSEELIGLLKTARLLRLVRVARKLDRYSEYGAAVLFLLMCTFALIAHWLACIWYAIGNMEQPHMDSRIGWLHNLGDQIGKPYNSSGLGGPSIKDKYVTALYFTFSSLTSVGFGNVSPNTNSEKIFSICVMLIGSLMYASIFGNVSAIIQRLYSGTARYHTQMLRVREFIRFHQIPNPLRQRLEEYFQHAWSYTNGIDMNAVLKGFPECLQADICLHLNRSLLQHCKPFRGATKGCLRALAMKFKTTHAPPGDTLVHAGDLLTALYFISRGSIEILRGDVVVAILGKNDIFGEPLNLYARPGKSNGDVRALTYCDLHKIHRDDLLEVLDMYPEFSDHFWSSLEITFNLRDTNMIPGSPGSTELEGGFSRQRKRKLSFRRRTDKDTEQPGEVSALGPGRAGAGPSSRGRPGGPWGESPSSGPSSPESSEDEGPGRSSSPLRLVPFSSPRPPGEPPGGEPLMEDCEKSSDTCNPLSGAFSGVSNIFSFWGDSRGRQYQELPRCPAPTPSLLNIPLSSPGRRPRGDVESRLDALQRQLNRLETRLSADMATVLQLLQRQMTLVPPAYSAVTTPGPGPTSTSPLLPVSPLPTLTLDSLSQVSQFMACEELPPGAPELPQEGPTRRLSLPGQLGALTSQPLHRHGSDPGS
row,SMILES,"hERG current change (%, negative = inhibition) at 1uM"
1,CCN(CC)C(=O)CSc1nnc(-c2cccnc2)n1Cc1ccccc1,2.95%
2,CC(=O)Oc1cc2c(cc1Cl)C(c1cccs1)CC1(CC(C)(C)NC(=S)N1)O2 (stereo not shown),8.54%
3,CCN(CC)P(=O)(Nc1ccc(SC(F)F)cc1)c1ccc(N(C)C)cc1NC(=O)c1ccco1 (stereo not shown),9.69%
4,O=C(Cn1cnc2ccccc21)c1ccccc1,15.6%
5,COc1cc(C=O)cc(Br)c1OCC(N)=O,11.2%
6,O=C(Nc1cccc(C(=O)Nc2ccccc2C(=O)O)c1)c1cccc(Cl)c1,12.2%
7,CCOC(=O)c1c(C)[nH]c(C)c1S(=O)(=O)N(C)CC(=O)N(C)Cc1ccccc1,22.5%
8,CN1CC(C(=O)c2cccc(C(F)(F)F)c2)C(c2ccc(Cl)cc2)C1 (stereo not shown),25.4%
9,Cc1ccc(CNc2nc3ccccc3n3nnnc23)cc1,14.9%
10,O=C(NCc1ccco1)C(=O)NCC1OCCN1C(=O)c1ccc(Cl)cc1 (stereo not shown),6.08%
11,CC(Oc1ccc2c(c1)c1ccnc3c4ccccc4c(=O)n2c13)C(=O)NCCN1CCOCC1 (stereo not shown),10.5%
12,Cc1cc(NNC(=O)c2cccc(C(F)(F)F)c2)nc2c1c(C)nn2C,3.71%
13,CCn1nnnc1SCC(=O)N1c2ccccc2Sc2ccccc21,13.9%
14,COC(=O)c1sccc1Oc1ccc(F)cc1[N+](=O)[O-],10%
15,Cc1nc2ccccc2n1CC(=O)N1CC(=O)Nc2ccccc21,18.6%
16,N#CCn1cnc2sc(-c3ccccc3)cc2c1=O,10.3%
17,CCc1ccccc1NC1c2ccccc2C(=O)N1Cc1ccco1 (stereo not shown),-1.49%
18,COc1ccccc1S(=O)(=O)Cc1ccc(C(=O)NC2CC2)o1,13.1%
19,COC(=O)Cn1c(CCC(=O)O)ccc1-c1ccccc1,10.4%
20,CCOc1ccc(C(C)(C)C)cc1S(=O)(=O)n1nc(C)cc1C,-3.33%
21,Cn1cccc1/C=C(\C#N)C(N)=S,9.2%
22,N#CC1=C(N)Oc2n[nH]c(-c3cccnc3)c2C1c1ccc([N+](=O)[O-])o1 (stereo not shown),3.89%
23,CCCNC(=O)COC(=O)c1ccc(N2CCCC2)c([N+](=O)[O-])c1,-3.49%
24,Cc1[nH]c2ccccc2c1C(=O)CN1CCN(c2ccc(Cl)cc2)CC1,9.25%
25,Cc1cc(NC(=O)C(C)SCC(=O)Nc2nnc(CC(C)C)s2)no1 (stereo not shown),9.37%
